Assay results published in the supplement of paper PMC3334620.
Over roughly 33,000 sequences, “E-score (-0.5 to 0.5)” has its median near -0.016; the highest 2% begin near 0.32. The list shows a part of the results.

Molecular target: T1, Stp1 (UniProt B3LFK1)
T1 sequence: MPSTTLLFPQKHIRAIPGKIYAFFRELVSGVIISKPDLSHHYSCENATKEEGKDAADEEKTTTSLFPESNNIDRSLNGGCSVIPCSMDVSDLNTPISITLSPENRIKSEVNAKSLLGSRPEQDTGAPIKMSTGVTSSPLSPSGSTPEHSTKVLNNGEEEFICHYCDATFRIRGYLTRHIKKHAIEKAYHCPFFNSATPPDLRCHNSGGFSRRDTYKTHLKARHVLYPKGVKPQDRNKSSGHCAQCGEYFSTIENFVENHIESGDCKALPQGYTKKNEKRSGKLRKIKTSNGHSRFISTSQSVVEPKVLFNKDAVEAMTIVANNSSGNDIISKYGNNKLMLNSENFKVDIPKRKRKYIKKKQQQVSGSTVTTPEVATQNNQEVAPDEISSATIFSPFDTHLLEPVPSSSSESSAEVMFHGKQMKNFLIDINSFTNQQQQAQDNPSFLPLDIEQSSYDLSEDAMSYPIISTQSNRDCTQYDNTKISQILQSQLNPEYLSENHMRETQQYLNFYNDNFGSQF
Assay: PBM E-score (8-mer binding enrichment) (E-score (-0.5 to 0.5)); higher = stronger / more preferred TF binding; most listed sequences are background and not binding sites
Conditions: protein concentration: 200 nM; construct: GST-full length
Description: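 Universal 'all 10-mer' protein binding microarrays (Agilent AMADID 015681) probed with GST-tagged S. cerevisiae TFs (full-length or DBD) made by in vitro transcription/translation (PURExpress), about 100-200 nM. Bound TF was detected with fluorescent anti-GST. Each ungapped 8-mer (which stands for itself and its reverse complement) is scored by the PBM enrichment score (E-score), a modified Wilcoxon-Mann-Whitney statistic from -0.5 to +0.5, computed with the Universal PBM Analysis Suite. Scale: above 0.35 generally sequence-specific binding.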

Going from ACTCCGTC to AGAAAGCA, the “PBM E-score” value rises from -0.169 to 0.158.

First: TGAAAACA
Second: AACACAAG
The “PBM E-score” value of the first is higher: 0.218 for the first, 0.0512 for the second.

Going from CTCCCGCA to GACATCAA, the “PBM E-score” value falls from 0.0984 to 0.00174.

First: GGTAGTAC
Second: ACCCACCC
The “PBM E-score” value of the first is higher: -0.0938 for the first, -0.13 for the second.

First: ACTTGTGA
Second: AAGGTATG
The “PBM E-score” value of the first is lower: -0.00935 for the first, 0.0638 for the second.

Going from ATTCGAGA to CTCAACAC, the “PBM E-score” value rises from 0.0726 to 0.14.

First: CAGGCGGC
Second: CATATCGA
The “PBM E-score” value of the first is higher: 0.3 for the first, 0.0637 for the second.

Compared with GGTTGGGA, AACACAGC is higher in “PBM E-score” value: -0.157 for the first, 0.0278 for the second.

Going from CGGCTTGC to ATCTATAC, the “PBM E-score” value falls from 0.37 to 0.0531.

First: CCACTCCC
Second: CTGACCCC
The “PBM E-score” value of the first is higher: -0.165 for the first, -0.379 for the second.

Compared with ACCGTTGA, CACTTCAG is higher in “PBM E-score” value: -0.134 for the first, -0.084 for the second.

First: ACCGTACT
Second: AATCCTCT
The “PBM E-score” value of the first is higher: -0.0454 for the first, -0.232 for the second.

First: ACACTTAT
Second: CCGGATCA
The “PBM E-score” value of the first is lower: 0.025 for the first, 0.0862 for the second.

Compared with GTTGGCGA, AATACGAT is lower in “PBM E-score” value: 0.0851 for the first, 0.0268 for the second.

Going from CCGATGCA to ATACGCGA, the “PBM E-score” value rises from -0.136 to -0.0124.

Going from ATACAGGG to CTCTACTA, the “PBM E-score” value rises from 0.051 to 0.0527.

Going from CAGTCTCG to AGAAGAAG, the “PBM E-score” value rises from -0.258 to -0.0809.

First: CTCAGGCA
Second: CCAGCTAG
The “PBM E-score” value of the first is higher: -0.0112 for the first, -0.255 for the second.

First: ATACCGCA
Second: CTGGTCCA
The “PBM E-score” value of the first is higher: 0.0172 for the first, -0.166 for the second.

First: CCTGTGCC
Second: GATAGCGA
The “PBM E-score” value of the first is higher: 0.269 for the first, -0.19 for the second.

First: CTTGCAAC
Second: GCTGACAA
The “PBM E-score” value of the first is higher: 0.183 for the first, 0.0719 for the second.

Going from AAAATCCC to AGTACGTG, the “PBM E-score” value falls from -0.0359 to -0.0504.

Going from ATCAACGC to GGTGCCCA, the “PBM E-score” value falls from 0.172 to -0.0485.

Going from GCCGCAAC to ATACAGAG, the “PBM E-score” value falls from 0.366 to 0.0316.

First: ACATCGGG
Second: GAACCTAC
The “PBM E-score” value of the first is lower: -0.321 for the first, -0.13 for the second.

Going from ACTTAGTA to CGCGGTCA, the “PBM E-score” value falls from 0.175 to -0.0843.

First: ACTTACAG
Second: GTACTAGA
The “PBM E-score” value of the first is lower: -0.0209 for the first, 0.118 for the second.

Compared with AAGCCTGA, CATTCGTC is higher in “PBM E-score” value: -0.033 for the first, 0.0341 for the second.

Going from CTAAGTCA to GGTTGGCA, the “PBM E-score” value falls from -0.00899 to -0.144.

Compared with CTACGTGA, CCCGAGAG is higher in “PBM E-score” value: -0.264 for the first, -0.169 for the second.

Compared with CCCAACTA, ATAGCTGC is higher in “PBM E-score” value: -0.125 for the first, 0.102 for the second.

First: GCGGGCAA
Second: AATTCGCC
The “PBM E-score” value of the first is lower: 0.0705 for the first, 0.206 for the second.

First: AATCTAAC
Second: TAACCATA
The “PBM E-score” value of the first is higher: -0.0282 for the first, -0.0347 for the second.

First: AGCATATC
Second: GCGTTTGA
The “PBM E-score” value of the first is lower: 0.0498 for the first, 0.0626 for the second.

Compared with AATATTGT, ACTACGTA is lower in “PBM E-score” value: 0.216 for the first, 0.055 for the second.

First: ACACCATA
Second: CCCATCTA
The “PBM E-score” value of the first is higher: 0.113 for the first, -0.169 for the second.

First: ATGATCCA
Second: GATCCCAC
The “PBM E-score” value of the first is higher: -0.055 for the first, -0.0573 for the second.

Compared with ATTTGCGC, AGTGTTAT is lower in “PBM E-score” value: 0.182 for the first, -0.0405 for the second.

Compared with AATCTTAG, TGGATCCA is lower in “PBM E-score” value: 0.0858 for the first, -0.12 for the second.

Compared with GGCGAAAC, GTAGATGA is lower in “PBM E-score” value: 0.157 for the first, 0.0463 for the second.

Compared with AAAGAGGG, CTGCCATA is higher in “PBM E-score” value: -0.162 for the first, 0.11 for the second.

First: AGCGCTAC
Second: AACCATAC
The “PBM E-score” value of the first is lower: -0.202 for the first, 0.0274 for the second.

Compared with TGACTACA, CAACTGCG is higher in “PBM E-score” value: 0.0164 for the first, 0.0222 for the second.

Compared with CTCCCTCC, GAGCAAAA is higher in “PBM E-score” value: -0.256 for the first, -0.0226 for the second.

Going from ATCCAGGA to CACTACGC, the “PBM E-score” value rises from -0.114 to -0.0748.

Compared with AGATACTA, AGGCCCTA is lower in “PBM E-score” value: -0.0314 for the first, -0.124 for the second.

Going from AGAGTCAC to ACTAGTAA, the “PBM E-score” value rises from -0.187 to 0.0866.

Going from CACTTGGA to CAGGTAGG, the “PBM E-score” value falls from 0.0573 to -0.11.

First: GAACAGCC
Second: ACATTCGG
The “PBM E-score” value of the first is higher: -0.0958 for the first, -0.129 for the second.

Compared with AATATTAT, CGTTAACC is lower in “PBM E-score” value: 0.199 for the first, 0.0705 for the second.

Compared with CGAAAACC, GACTGAAA is lower in “PBM E-score” value: 0.127 for the first, 0.00466 for the second.

First: AGCCATCA
Second: GAGAAAGA
The “PBM E-score” value of the first is higher: -0.00725 for the first, -0.0795 for the second.

Compared with TCTAGGAA, ATACCATG is lower in “PBM E-score” value: -0.0515 for the first, -0.0763 for the second.

Going from ACAAATCT to AGGAATAA, the “PBM E-score” value falls from 0.105 to 0.1.

Going from ACCTAAGA to CCGATTTA, the “PBM E-score” value rises from -0.077 to 0.00012.

Going from ATGTATCC to GATGCGAA, the “PBM E-score” value rises from -0.0581 to 0.12.

Compared with ATTGGAAG, GCACAATA is higher in “PBM E-score” value: -0.113 for the first, 0.105 for the second.

Going from GGCTCGCA to ACCCTGCC, the “PBM E-score” value falls from -0.0457 to -0.211.

First: CTGGTGAC
Second: GGAAAGCA
The “PBM E-score” value of the first is lower: -0.232 for the first, 0.135 for the second.

First: CAATAGTG
Second: GGTGGAGA
The “PBM E-score” value of the first is higher: 0.106 for the first, -0.295 for the second.

First: CAGATTGA
Second: AGTAAGGG
The “PBM E-score” value of the first is higher: -0.0684 for the first, -0.119 for the second.

First: ATCTAGTG
Second: AGAAACTG
The “PBM E-score” value of the first is lower: -0.0846 for the first, 0.0433 for the second.

Going from CTCCTGCC to GGCAATAA, the “PBM E-score” value rises from -0.0537 to 0.177.

First: CGACTTAA
Second: CGAACTGC
The “PBM E-score” value of the first is lower: -0.123 for the first, -0.0907 for the second.

Going from TGTCGAAA to ACAAGACG, the “PBM E-score” value falls from 0.0924 to -0.152.

Compared with CGCCTGGC, CATCCGTA is higher in “PBM E-score” value: -0.0821 for the first, 0.23 for the second.

Compared with CCGCCAAG, CACACGTG is higher in “PBM E-score” value: -0.24 for the first, 0.231 for the second.

Going from GAGCACCA to CAAGACTG, the “PBM E-score” value rises from -0.182 to -0.14.

Compared with AGGGGTGG, GATCAAGC is higher in “PBM E-score” value: -0.205 for the first, -0.081 for the second.

First: ACATGGTC
Second: CCTGAGCC
The “PBM E-score” value of the first is lower: -0.131 for the first, -0.0996 for the second.

Going from AAACCGCT to TCTTGGCA, the “PBM E-score” value rises from -0.0872 to 0.0772.

Compared with AATCTAAG, AGTTTAAT is higher in “PBM E-score” value: 0.0303 for the first, 0.148 for the second.

Going from CTTGTACA to ATTCACCA, the “PBM E-score” value falls from 0.0194 to -0.0152.

First: CTACACCA
Second: AAACGAGC
The “PBM E-score” value of the first is lower: -0.0664 for the first, 0.149 for the second.

Compared with ACACGTCT, CCAACATC is lower in “PBM E-score” value: 0.0505 for the first, -0.127 for the second.

Going from GGGCAAAC to TAGCCGGA, the “PBM E-score” value rises from -0.249 to -0.0486.

Going from CCCAGAAA to AAGGCTAC, the “PBM E-score” value rises from -0.0554 to 0.0499.

First: ACCAAGCC
Second: AGTTGTGG
The “PBM E-score” value of the first is lower: -0.104 for the first, 0.096 for the second.

Going from CTCGGCAC to ACGTGTGG, the “PBM E-score” value falls from 0.3 to 0.15.

Compared with CGTTCTGC, CGGGAACA is lower in “PBM E-score” value: 0.173 for the first, 0.0961 for the second.

First: CCAAGCTA
Second: AAATAGAG
The “PBM E-score” value of the first is lower: -0.299 for the first, 0.0948 for the second.

Going from GAAGAGTA to GACGCCAA, the “PBM E-score” value falls from 0.117 to -0.17.

Going from AACGACAG to CAGACTTA, the “PBM E-score” value falls from 0.0109 to -0.2.

Going from CGCGGTAG to GCTACAGA, the “PBM E-score” value falls from 0.0224 to -0.185.

First: CCTGACCA
Second: TGTGGCAA
The “PBM E-score” value of the first is lower: 0.0234 for the first, 0.193 for the second.

Compared with GACTCCAA, CAAGACTA is higher in “PBM E-score” value: -0.258 for the first, -0.241 for the second.
